Test results taken from US20250230231A1 (FYB202 PROJECT, published 2025).

B1: ustekinumab antibody produced in CHO-K1 cells, parental clone cl485-11, subclone 8 (antibody, human IgG1, kappa)
heavy: EVQLVQSGAEVKKPGESLKISCKGSGYSFTTYWLGWVRQMPGKGLDWIGIMSPVDSDIRYSPSFQGQVTMSVDKSITTAYLQWNSLKASDTAMYYCARRRPGQGYFDFWGQGTLVTVSS[sequence of human IgG1 constant region not given]
light: [sequence of about 200 residues not given]
modifications: glycosylated on the asparagine residue 299 of the Fc region; 68.6% of molecules (CEX main peak K0) without C-terminal lysine
notes: Fully human IgG1 kappa; differs in glycosylation (low sialic acid, more G0F) and C-terminal lysine content; Purified by protein A from the supernatant of the clone; also called 485-11#8; clone 485-11 #8
B2: ustekinumab antibody produced in CHO-K1 cells, parental clone cl563-7, subclone 54 (antibody, human IgG1, kappa)
heavy: B1 heavy
light: [sequence of about 200 residues not given]
modifications: glycosylated on the asparagine residue 299 of the Fc region; 69.6% of molecules (CEX main peak K0) without C-terminal lysine
notes: Fully human IgG1 kappa; differs in glycosylation and C-terminal lysine content; also called CHO-produced ustekinumab
B3: ustekinumab antibody produced in CHO-K1 cells, parental clone cl563-24, subclone 103 (antibody, human IgG1, kappa)
heavy: B1 heavy
light: [sequence of about 200 residues not given]
modifications: glycosylated on the asparagine residue 299 of the Fc region; 63.0% of molecules (CEX main peak K0) without C-terminal lysine
notes: Fully human IgG1 kappa; differs in glycosylation and C-terminal lysine content; also called 563-24#103; Clone number c1563-24, subclone 103
B4: ustekinumab reference product (Stelara), produced in Sp2/0 murine myeloma cells (antibody, human IgG1, kappa)
heavy: B1 heavy
light: [sequence of about 200 residues not given]
modifications: glycosylated on the asparagine residue 299 of the Fc region; 36.0% of molecules (CEX main peak K0, mean of 12 samples) without C-terminal lysine
notes: Fully human IgG1 kappa, marketed product; highly sialylated (mostly NGNA)

Molecular target: T1, recombinant human IL-12 (human, UniProt P29459 23-219; P29460 23-328)
T1 sequence (looked up) 1: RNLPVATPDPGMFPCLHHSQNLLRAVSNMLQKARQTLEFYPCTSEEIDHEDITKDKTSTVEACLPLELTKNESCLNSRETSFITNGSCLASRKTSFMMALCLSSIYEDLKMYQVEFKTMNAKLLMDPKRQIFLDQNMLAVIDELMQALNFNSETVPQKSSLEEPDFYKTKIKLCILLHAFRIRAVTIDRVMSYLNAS
T1 sequence (looked up) 2: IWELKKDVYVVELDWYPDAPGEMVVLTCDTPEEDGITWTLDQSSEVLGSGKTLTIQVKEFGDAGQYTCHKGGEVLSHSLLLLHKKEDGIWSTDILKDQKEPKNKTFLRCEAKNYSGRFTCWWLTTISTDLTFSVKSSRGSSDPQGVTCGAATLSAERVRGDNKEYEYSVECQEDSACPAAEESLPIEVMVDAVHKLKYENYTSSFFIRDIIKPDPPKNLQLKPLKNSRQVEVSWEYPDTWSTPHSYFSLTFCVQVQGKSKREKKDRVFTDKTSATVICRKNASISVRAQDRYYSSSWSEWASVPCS
Experiment: cell-based or functional assay

Q: How did the “NK-Assay RP [U/mg] (inhibition of IL-12 induced IFN-gamma production in NK-92 cells, relative potency)” value turn out when B1 was run?
A: The value was 1.1 U/mg.

Q: Which “NK-Assay RP [U/mg] (inhibition of IL-12 induced IFN-gamma production in NK-92 cells, relative potency)” value does the source give for B2 here?
A: Its value is 1.09 U/mg.

Q: For B3, which “NK-Assay RP [U/mg] (inhibition of IL-12 induced IFN-gamma production in NK-92 cells, relative potency)” value is on record?
A: Its value is 0.98 U/mg.

Q: Which “NK-Assay RP [U/mg] (inhibition of IL-12 induced IFN-gamma production in NK-92 cells, relative potency)” value does the source give for B4 here?
A: Its value is 1 U/mg.

Molecular target: T2, recombinant human IL-23 (human, UniProt Q9NPF7 20-189; P29460 23-328)
T2 construct: Recombinant protein coated on the ELISA plate
T2 sequence (looked up) 1: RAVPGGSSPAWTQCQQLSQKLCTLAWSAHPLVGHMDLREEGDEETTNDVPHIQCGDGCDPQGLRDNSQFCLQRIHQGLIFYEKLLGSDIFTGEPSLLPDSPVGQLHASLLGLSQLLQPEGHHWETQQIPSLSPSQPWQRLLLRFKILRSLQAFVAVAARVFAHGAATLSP
T2 sequence (looked up) 2: T1 sequence (looked up) 2
Experiment: ELISA, IL-23 coated, serially diluted antibody, relative to reference (PLA2.1)

Q: With B1 as the binder, how does the relative potency read?
A: The relative potency was 1.02 U/mg.

Q: Which relative potency does the source give for B2 here?
A: Its relative potency is 1.02 U/mg.

Q: For B3, which relative potency is on record?
A: Its relative potency is 0.95 U/mg.

Molecular target: T1, recombinant human IL-12
Experiment: BLI (Octet RED96), antibody captured on AHC biosensor, IL-12 in solution, 1:1 model

Q: Which Kd does the source give for B2 here?
A: Its Kd is 0.208 nM.

Q: Which Kd does the source give for B3 here?
A: Its Kd is 0.19 nM.

Q: How did the Kd turn out when B4 was run?
A: The Kd was 0.206 nM.
